# Source: paper PMC5892938
# The other results are listed elsewhere or left out. At the low end of the ranking, values are background and their order means little.
# Target: GST-SBP-SLBP (stem-loop binding protein) (UniProt Q14493)
# Test: targeted RNA Bind-n-Seq;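 also: DESeq read counts versus GST-SBP nonspecific binding control pulldown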
# Details: RBNS binding buffer: 25 mM Tris pH 7.5, 150 mM KCl, 3 mM MgCl2, 0.1% Tween, 0.5 mg/mL BSA, 1 mM DTT; 27 nM protein, 750 pM RNA pool; temperature not stated; high values mean tight binding
row,Sequence,binding signal (log2 fold change)
1,GGUCACGUCUCAAUCAACUCUAACGAGGGGGGGAAAACCCCUUUACCCUCACAAUCAACAGCUCGCAGUCAAG,-0.0782
2,GGUCACGUCUCAAUCAACUCAUCCUCAGGAGUUUCCUCCUGUUUAUUCAACAGCUCGCAGUCAAG,0.147
3,GGUCACGUCUCAAUCAACUCUUUUCCCAGGGAAAACCCUGGUUAUUUCAACAGCUCGCAGUCAAG,-0.0893
4,GGUCACGUCUCAAUCAACUCAAACGAGGGGGGGAAAACCCCUUUGCCCUCAAAAUCAACAGCUCGCAGUCAAG,-0.165
5,GGUCACGUCUCAAUCAACUCUACUUCCAGGGAAACCCCUGGUUUACUCAACAGCUCGCAGUCAAG,-0.0335
6,GGUCACGUCUCAAUCAACUCAUCUUCCAGGGAAAACCCUGGCGUAUUCAACAGCUCGCAGUCAAG,-0.0706
7,GGUCACGUCUCAAUCAACUCCAAAGAGGGGGGGAAAACCCCUUUACCCUCCGCAUCAACAGCUCGCAGUCAAG,0.352
8,GGUCACGUCUCAAUCAACUCAGUCUCAGGAGUUUUCUCCUGUUUUUUCAACAGCUCGCAGUCAAG,-0.138
9,GGUCACGUCUCAAUCAACUCAAUAGAGGGGGGGAAAACCCCUUUACCCUCCACCUCAACAGCUCGCAGUCAAG,0.349
10,GGUCACGUCUCAAUCAACUCUUUUUCCAGGGAAAACCCUGGCAUAUUCAACAGCUCGCAGUCAAG,-0.0627
11,GGUCACGUCUCAAUCAACUCUUUUUCCAGGGAAACCCCUGGCAUUUUCAACAGCUCGCAGUCAAG,0.101
12,GGUCACGUCUCAAUCAACUCCAAAGAGGGGGGGAAAACCCCUUUACCCUCAAAAUCAACAGCUCGCAGUCAAG,0.0192
13,GGUCACGUCUCAAUCAACUCUCUCGAGGGGGGGAAAACCCCUUUACCCUCAAUAUCAACAGCUCGCAGUCAAG,-0.0498
14,GGUCACGUCUCAAUCAACUCUAUUUCAGGAGUUUUCUCCUGCUUUUUCAACAGCUCGCAGUCAAG,0.196
15,GGUCACGUCUCAAUCAACUCAAACGAGGGGGGGAAAACCCCUUUGCCCUCAUCUUCAACAGCUCGCAGUCAAG,0.58
16,GGUCACGUCUCAAUCAACUCAUGUCCAGGAGUUUCCUCCUGUUUUUUCAACAGCUCGCAGUCAAG,-0.109
17,GGUCACGUCUCAAUCAACUCAACUCCCAGGGAAAUCCCUGGCAUACUCAACAGCUCGCAGUCAAG,0.145
18,GGUCACGUCUCAAUCAACUCCAUAGAGGGGGGGAAAACCCCUUUGCCCUCAUCCUCAACAGCUCGCAGUCAAG,-0.0941
19,GGUCACGUCUCAAUCAACUCUUUUUCCAGGGAAAACCCUGGCAUUUUCAACAGCUCGCAGUCAAG,0.0735
20,GGUCACGUCUCAAUCAACUCUAAAGAGGGGGGGAAAACCCCUUUGCCCUCAAUGUCAACAGCUCGCAGUCAAG,0.175
21,GGUCACGUCUCAAUCAACUCAAGUCCCAGGGAAAGCCCUGGCAAUCUCAACAGCUCGCAGUCAAG,-0.304
22,GGUCACGUCUCAAUCAACUCUAAAGAGGGGGGGAAAACCCCUUUGCCCUCACCAUCAACAGCUCGCAGUCAAG,0.0504
23,GGUCACGUCUCAAUCAACUCAACUCCCAGGGAAACCCCUGGCAAUUUCAACAGCUCGCAGUCAAG,-0.264
24,GGUCACGUCUCAAUCAACUCAUCCCCCAGGGAAACCCCUGGCAAAUUCAACAGCUCGCAGUCAAG,-0.0865
25,GGUCACGUCUCAAUCAACUCAUUUUCAGGAGUUUGCUCCUGUAGUCUCAACAGCUCGCAGUCAAG,0.132

row,Sequence,binding signal (log2 fold change)
1,GGUCACGUCUCAAUCAACUCUUUCGAGGGGGGGAAAACCCCUUUACCCUCCACAUCAACAGCUCGCAGUCAAG,0.08
2,GGUCACGUCUCAAUCAACUCUAACGAGGGGGGGAAAACCCCUUUGCCCUCACAAUCAACAGCUCGCAGUCAAG,0.18
3,GGUCACGUCUCAAUCAACUCAUUUUCCAGGGAAAUCCCUGGCAUACUCAACAGCUCGCAGUCAAG,0.115
4,GGUCACGUCUCAAUCAACUCAUCGCCAGGAGUUUCCUCCUGUUUUUUCAACAGCUCGCAGUCAAG,-0.109
5,GGUCACGUCUCAAUCAACUCUUCGUCCAGGGAAAACCCUGGCAUAUUCAACAGCUCGCAGUCAAG,-0.0982
6,GGUCACGUCUCAAUCAACUCUUCGUCAGGAGUUUCCUCCUGCUAAUUCAACAGCUCGCAGUCAAG,0.165
7,GGUCACGUCUCAAUCAACUCAAACGAGGGGGGGAAAACCCCUUUACCCUCAAAAUCAACAGCUCGCAGUCAAG,0.127
8,GGUCACGUCUCAAUCAACUCAUCUCCCAGGGAAAACCCUGGUUAUUUCAACAGCUCGCAGUCAAG,-0.0205
9,GGUCACGUCUCAAUCAACUCUAUCUCAGGAGUUUCCUCCUGUUAACUCAACAGCUCGCAGUCAAG,0.164
10,GGUCACGUCUCAAUCAACUCAUCUUCAGGAGUUUUCUCCUGCAUAUUCAACAGCUCGCAGUCAAG,0.12
11,GGUCACGUCUCAAUCAACUCAACUUCAGGAGUUUGCUCCUGCUAUUUCAACAGCUCGCAGUCAAG,-0.163
12,GGUCACGUCUCAAUCAACUCUACUUCAGGAGUUUACUCCUGUUUUCUCAACAGCUCGCAGUCAAG,0.103
13,GGUCACGUCUCAAUCAACUCUAUCUCCAGGGAAACCCCUGGUAUUUUCAACAGCUCGCAGUCAAG,-0.0705
14,GGUCACGUCUCAAUCAACUCUUCCUCCAGGGAAACCCCUGGUAUACUCAACAGCUCGCAGUCAAG,-0.19
15,GGUCACGUCUCAAUCAACUCAAAAGAGGGGGGGAAAACCCCUUUGCCCUCAGAAUCAACAGCUCGCAGUCAAG,-0.195
16,GGUCACGUCUCAAUCAACUCUUAAGAGGGGGGGAAAACCCCUUUGCCCUCAAACUCAACAGCUCGCAGUCAAG,-0.611
17,GGUCACGUCUCAAUCAACUCAUUCGCCAGGGAAACCCCUGGGUAUUUCAACAGCUCGCAGUCAAG,0.329
18,GGUCACGUCUCAAUCAACUCUUCCCCAGGAGUUUCCUCCUGCAUUCUCAACAGCUCGCAGUCAAG,0.135
19,GGUCACGUCUCAAUCAACUCAUCUCCAGGAGUUUCCUCCUGUUUUUUCAACAGCUCGCAGUCAAG,-0.0493
20,GGUCACGUCUCAAUCAACUCUUUUCCCAGGGAAAUCCCUGGCAUUCUCAACAGCUCGCAGUCAAG,-0.0288
21,GGUCACGUCUCAAUCAACUCUUUCCCCAGGGAAACCCCUGGUUAUUUCAACAGCUCGCAGUCAAG,0.0768
22,GGUCACGUCUCAAUCAACUCUUCGGCAGGAGUUUUCUCCUGGAUAUUCAACAGCUCGCAGUCAAG,-0.0153
23,GGUCACGUCUCAAUCAACUCUACUCCCAGGGAAAACCCUGGCAUAUUCAACAGCUCGCAGUCAAG,-0.212
24,GGUCACGUCUCAAUCAACUCUCACGAGGGGGGGAAAACCCCUUUACCCUCAAAUUCAACAGCUCGCAGUCAAG,0.315
25,GGUCACGUCUCAAUCAACUCUUCCUCAGGAGUUUCCUCCUGUUUAUUCAACAGCUCGCAGUCAAG,0.173

row,Sequence,binding signal (log2 fold change)
1,GGUCACGUCUCAAUCAACUCUUCCCCAGGAGUUUUCUCCUGUAAACUCAACAGCUCGCAGUCAAG,0.0123
2,GGUCACGUCUCAAUCAACUCAAUCUCCAGGGAAACCCCUGGUAAAUUCAACAGCUCGCAGUCAAG,0.0185
3,GGUCACGUCUCAAUCAACUCAUAAGAGGGGGGGAAAACCCCUUUGCCCUCAAAUUCAACAGCUCGCAGUCAAG,0.148
4,GGUCACGUCUCAAUCAACUCAUUUUCAGGAGUUUCCUCCUGCAAACUCAACAGCUCGCAGUCAAG,0.102
5,GGUCACGUCUCAAUCAACUCAUUCCCCAGGGAAACCCCUGGCUUACUCAACAGCUCGCAGUCAAG,0.0406
6,GGUCACGUCUCAAUCAACUCUUCCCCAGGAGUUUUCUCCUGUAUAUUCAACAGCUCGCAGUCAAG,-0.063
7,GGUCACGUCUCAAUCAACUCAUCGUCAGGAGUUUUCUCCUGUUUUCUCAACAGCUCGCAGUCAAG,0.0337
8,GGUCACGUCUCAAUCAACUCAAGUCCAGGAGUUUUCUCCUGCUUUCUCAACAGCUCGCAGUCAAG,-0.018
9,GGUCACGUCUCAAUCAACUCAUUCCCAGGAGUUUACUCCUGUAAUCUCAACAGCUCGCAGUCAAG,-0.0627
10,GGUCACGUCUCAAUCAACUCAACGCCAGGAGUUUUCUCCUGUUAAUUCAACAGCUCGCAGUCAAG,-0.0352
11,GGUCACGUCUCAAUCAACUCAUCUUCAGGAGUUUACUCCUGCUAUUUCAACAGCUCGCAGUCAAG,0.201
12,GGUCACGUCUCAAUCAACUCAAUUUCAGGAGUUUGCUCCUGCAUAUUCAACAGCUCGCAGUCAAG,0.0259
13,GGUCACGUCUCAAUCAACUCUUCUUCAGGAGUUUUCUCCUGUAAUUUCAACAGCUCGCAGUCAAG,0.0517
14,GGUCACGUCUCAAUCAACUCUAUCCCAGGAGUUUUCUCCUGCUUUCUCAACAGCUCGCAGUCAAG,0.173
15,GGUCACGUCUCAAUCAACUCUUUAGAGGGGGGGAAAACCCCUUUGCCCUCAUCAUCAACAGCUCGCAGUCAAG,0.173
16,GGUCACGUCUCAAUCAACUCUUUUUCAGGAGUUUCCUCCUGCUUAUUCAACAGCUCGCAGUCAAG,0.181
17,GGUCACGUCUCAAUCAACUCUACUCCAGGAGUUUUCUCCUGUUAAUUCAACAGCUCGCAGUCAAG,0.0273
18,GGUCACGUCUCAAUCAACUCCUACGAGGGGGGGAAAACCCCUUUACCCUCAUUAUCAACAGCUCGCAGUCAAG,0.0802
19,GGUCACGUCUCAAUCAACUCAUCGCCAGGAGUUUCCUCCUGUAUUUUCAACAGCUCGCAGUCAAG,-0.043
20,GGUCACGUCUCAAUCAACUCAUAAGAGGGGGGGAAAACCCCUUUGCCCUCAAUAUCAACAGCUCGCAGUCAAG,0.26
21,GGUCACGUCUCAAUCAACUCAACUCCAGGAGUUUACUCCUGUAUUCUCAACAGCUCGCAGUCAAG,0.247
22,GGUCACGUCUCAAUCAACUCAAUAGAGGGGGGGAAAACCCCUUUGCCCUCAAUCUCAACAGCUCGCAGUCAAG,0.451
23,GGUCACGUCUCAAUCAACUCAACUCCAGGAGUUUUCUCCUGUUAUUUCAACAGCUCGCAGUCAAG,-0.0265
24,GGUCACGUCUCAAUCAACUCUUCCUCAGGAGUUUCCUCCUGCAAUUUCAACAGCUCGCAGUCAAG,-0.0496
